Source: the supplement of paper PMC11417369
The list shows a part of the results.

System: PF3D7_0420300 AP2 domain 1 (GST-tagged)
Assay: gcPBM binding intensity (ln(normalized median fluorescence intensity)); higher = stronger DNA binding
Summary of the method: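 The highest Masliner-normalised natural-log median intensity across replicate spots of either probe orientation is reported as binding intensity. GST-tagged P. falciparum DNA-binding domains expressed in E. coli were applied for 1 h to an Agilent 4 × 180k array of primer-extended double-stranded 36-bp intergenic genomic probes plus negative controls, and bound protein was detected with Alexa488 anti-GST antibody and scanned at 488 nm.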

Sequence | gcPBM binding intensity (ln)
TATAATATAAAATATGCACACATTGGAATGGGAGAA [CACACA_site3746] | 9.72
TATTGTAAAGTGTCATTATTACGTTATATTATATAT [CACACA_negctrl_site98] | 9.35
TTATAAAATATATATACATGCACAAAATTATAAGTA [TGCATGCA_site294] | 9.46
AATCAACATTTTTTTTGCTATTTTTTTTTTTAATTA [CACACA_negctrl_site891] | 9.34
AAAAAAACATAAAATACACACAACCTTAAGAATGTA [CACACA_site3293] | 9.81
TTTCATTTTTGAAGGTGTACTTAAAATTTATGTAAT [XGTACX_site6671] | 8.98
AAAATTTATTATCTATATAATAATATGAAACAAAAC [GTGCAC_negctrl_site731] | 9.41
ATGAAAAAAAGACATGCATGTAAATATAAATTGCTT [TGCATGCA_site504] | 9.49
CTCATTTTGTTAATGGTGCAAAAAAAAAAAAAAAAA | 8.51
CATTATAAGAGACACACACACATATATAAATATGTA [CACACA_site6621] | 9.92
AGTAAGAGGCATTAAGCATGCATATTATTATAAGCA [TGCATGCA_site237] | 9.42
TATTTAAAACTATACACATGCATTATATAAAGATAT [TGCATGCA_site702] | 9.29
ATAAAATCAAAATATACACACAAGGGGGAAAATCAA [CACACA_site2809] | 9.93
ATAGGACATGTATCCAGTACATATTTAAAAAAAATA [XGTACX_site88] | 9.1
GCATATATCAAATATCGTACATTTTTTAAATTAAAA [XGTACX_site3994] | 8.94
TTTGTAAGTCTTTGTTGTACTCAATAGAATGAAGAA [XGTACX_site8930] | 8.87
TTTTCTTTTTTTTATTGTACTTATAAAAATAAATAA [XGTACX_site3498] | 8.91
TACTTATGTGCATACCTACACACTTACATATATATA [CACACA_site2975] | 9.69
GATGATGTTTATTTGTGTACATATTAATACTTAATA [XGTACX_site1902] | 9.49
AAAAAAAGAATGTGAACACACACATTGAATATAATT [CACACA_site8341] | 9.66
AAGAACAGAACGTACACACACATATATATATATATA [CACACA_site3457] | 9.8
AATTATTTACCCTATACACACAAAACCCACTAAAAA [CACACA_site4801] | 9.87

Sequence | gcPBM binding intensity (ln)
TATAAATAAATACATACACACACATACATATATATA [CACACA_site9024] | 9.88
AATCATATGAAAAATACATGCGCATGGATACCTTTA [TGCATGCA_site224] | 9.44
AAAAAAAAAAAAAAGGTGCAAATAAATTAACCTTAT | 9.16
TTTTATTTTTTCCGACGTACATCCATTATATATAAT [XGTACX_site4469] | 9.48
AAATGTTAAAATGACAGTACATATATAAAAAAAAAA [XGTACX_site3936] | 9.34
AAATATTTGGAGAAATGTACATATTATAAATATATT [XGTACX_site6885] | 9.27
CTAGGAAATTATATGGGTACTCATATTCATAAAAAA [XGTACX_site1846] | 8.92
TAAAAAAAATAGCATACACACATATATACATATATA [CACACA_site658] | 9.56
GTCGCCAAAAGGTGTACACATAATGCATTATCATAA [CACACA_site6112] | 9.29
TACACATAATATAATGCATGTGTGATGTATGTTTAA [TGCATGCA_site697] | 9.37
ATTAAAAAATTATTCACACAAAATAAAAAAATGAAA [CACACA_site4918] | 9.37
ATATTTAGGATTATCTGTACATAATATGTTTAATTA [XGTACX_site3426] | 9.21
AAAATTATTTTTATGTGTACTTATTTATTATTTATA [XGTACX_site6665] | 9.25
TTGTATTCCTTTTACAACTACCATGAAGAGAATTTT [CACACA_negctrl_site1286] | 9.01
AAAAAAAAAAAGTACACACATACATATAAATATATA [CACACA_site1809] | 9.46
AAAGACGCAAAATTGGTGCGCTGCTTTTAGCATTTT | 9.12
ACAGAATATTTAATTCAACACACATACATATTTATT [CACACA_site8734] | 9.52
ATTTATATCCTTAAACGTACATTGTATTGTATTTTA [XGTACX_site6080] | 9.4
AATAATCATGATCAAAGTACTTATGAATACCAAAAA [XGTACX_site2572] | 9.3
TAATCTTTCGTACATGTACACACAGAAAAAAAAAAA [CACACA_site8798] | 9.34
TGCATGCATTATCATAGTACATATAATGTTGTATAA [XGTACX_site2775] | 9.05
ATTATTAAGTTTCACAAGAACATTGTTAACAATTTT [CACACA_negctrl_site1128] | 9
